ChEMBL document CHEMBL4888484, “Replenishing the malaria drug discovery pipeline: Screening and hit evaluation of the MMV Hit Generation Library 1 (HGL1) against asexual blood stage Plasmodium falciparum ,using a nano luciferase reporter read-out” (2022)
In all, about 150,000 compounds went through this assay and about 540 (0.36%) showed an effect of 50% or more. The list shows a part of the results.

Each compound was assayed on Plasmodium falciparum (assay: Primary screen in NF54 nanoGlo assay, in single point, at 2uM, 72h; a lower Z score goes with more inhibition). Conditions: timepoint 72 hour.
Format: functional, Erythrocyte

For `COc1ccc(C[C@](C)(O)CNC(=O)CCc2ccccc2Br)cc1`, which “% Inhibition” value is on record?
Its value is -13%.

And the Z score?
The Z score was 2.23.

How did the “% Inhibition” value turn out when `CCCn1c(=O)cc(C)c2ccc(OCC(=O)N3CCOCC3)cc21` was run?
The value was -3%.

What about the Z score of the same compound?
The Z score was 0.49.

Which “% Inhibition” value does the source give for `CCOC(=O)[C@@H]1C(=O)Nc2cc(OC)ccc21` here?
Its value is 35%.

And the Z score?
The Z score was -4.46.

Which results are given for `c1ccc(C2=NN(c3ccccc3)C3(c4ccccc4)CCC3N2)cc1` (stereo not drawn)?
% Inhibition: -10%; Z score: 1.19

`CO[C@H]1C[C@H]2CC(NCc3ccsc3)C[C@H]2C1` (stereo partly drawn) was tested. Which “% Inhibition” value did it give?
The value was -10%.

And the Z score?
The Z score was 1.33.

`Cc1ccnn1CC(=O)N1COCC1(C)C` was tested. Which “% Inhibition” value did it give?
The value was -10%.

And the Z score?
The Z score was 0.99.

`CCCNC(=O)c1cc(-c2ccccc2)cn1C` was tested. Which “% Inhibition” value did it give?
The value was -1%.

What about the Z score of the same compound?
The Z score was 0.18.

Which results are given for `Cc1ccc(C(=O)NCc2ccccc2CN2CCOCC2)cc1N(C)S(C)(=O)=O`?
% Inhibition: 12%; Z score: -1.4

With `CN(Cc1cnccn1)C(=O)COCc1nc2ccccc2[nH]1` as the compound, how does the “% Inhibition” value read?
Its value is 0%.

What about the Z score of the same compound?
Its Z score is 0.01.

Which “% Inhibition” value does the source give for `CCc1nc(C)ncc1C(=O)NCc1nc(C(F)(F)F)cs1` here?
Its value is -4%.

What about the Z score of the same compound?
The Z score was 0.45.

Which “% Inhibition” value does the source give for `Cc1nn(-c2ccc3nncn3n2)c2c1[C@@H](c1ccc(O)c(Cl)c1)CC(O)=N2` here?
Its value is -11%.

And the Z score?
Its Z score is 1.27.

Which results are given for `CCCOC[C@H]1CCN(C(=O)c2cnc(OC)nc2)C1`?
% Inhibition: -12%; Z score: 2.03

Which results are given for `CCNC(=O)N1CCCCC[C@@H]1CN1CCOCC1`?
% Inhibition: -3%; Z score: 0.46

Which results are given for `CC(=O)Nc1cccnc1C(=O)NC[C@H](O)C1CCCCC1`?
% Inhibition: -1%; Z score: 0.22

What does the source list for `Cc1cccc(S(=O)(=O)CC(=O)N[C@H](c2ccccc2)C2CC2)c1`?
% Inhibition: -2%; Z score: 0.26

Which results are given for `Nc1nc(COC(=O)c2c(F)cccc2Cl)nc(Nc2ccccc2)n1`?
% Inhibition: -13%; Z score: 1.53

With `CCCOc1ccc(CN(CCC)C(=O)c2ccc3c(=O)n4c(nc3c2)CCCCC4)cc1OC` as the compound, how does the “% Inhibition” value read?
The value was -2%.

And the Z score?
Its Z score is 0.19.

Which “% Inhibition” value does the source give for `Fc1cc(Cn2ccnc2)cc(-c2cnn(C[C@H]3CCOC3)c2)c1` here?
The value was -13%.

And the Z score?
The Z score was 2.09.

With `Cn1nc(C(=O)Nc2nc3ccccc3[nH]2)ccc1=O` as the compound, how does the “% Inhibition” value read?
Its value is -16%.

What about the Z score of the same compound?
The Z score was 2.86.

With `CC(C)c1n[nH]c2c1CN(CCCS(=O)(=O)N(C)C)CC2` as the compound, how does the “% Inhibition” value read?
Its value is 7%.

What about the Z score of the same compound?
The Z score was -0.97.

Which results are given for `CCOc1ccccc1C(=O)NCc1cncc(N2CCCC2=O)c1`?
% Inhibition: -21%; Z score: 3.86

For `Cc1ccccc1CNC(=O)CC(C)C`, which “% Inhibition” value is on record?
Its value is -13%.

What about the Z score of the same compound?
Its Z score is 1.69.

Which “% Inhibition” value does the source give for `O=C(c1ccccc1)N1C[C@H](c2nnc(-c3ccncc3)o2)C2(CCOCC2)C1` here?
Its value is -2%.

And the Z score?
The Z score was 0.44.

Which results are given for `Cc1cc(C(=O)NC2CCN(C3CC3)CC2)c(Cl)cc1F`?
% Inhibition: -9%; Z score: 1.53

With `Cc1ncoc1C(=O)N1CCN[C@H](c2ccccc2)C1` as the compound, how does the “% Inhibition” value read?
The value was -8%.

And the Z score?
The Z score was 1.4.

With `Cc1nc(CC(=O)NC[C@H](O)COc2ccc(F)cc2)cs1` as the compound, how does the “% Inhibition” value read?
The value was -3%.

What about the Z score of the same compound?
Its Z score is 0.65.

Which “% Inhibition” value does the source give for `CCOc1ccc(CN2CC(c3nc(C)no3)C2)cc1` here?
The value was -11%.

And the Z score?
Its Z score is 2.

Which “% Inhibition” value does the source give for `CCn1nnc2cc(C(=O)N3CCC(C(=O)NC4CCCC4)CC3)ccc21` here?
The value was -10%.

And the Z score?
Its Z score is 1.93.

With `COCCN1C[C@@H](CNc2nccc(-c3c(C)nn(C)c3C)n2)CC1=O` as the compound, how does the “% Inhibition” value read?
The value was -1%.

What about the Z score of the same compound?
Its Z score is 0.25.

Which “% Inhibition” value does the source give for `COc1ccc(-c2cnnc(NCC[C@H]3CCCCO3)n2)c(OC)c1` here?
The value was -13%.

And the Z score?
The Z score was 1.73.

What does the source list for `CC1CCc2c(cc(-c3ccccc3)n2-c2ccc(C(=O)NC3CCCCC3C)cc2)C1` (stereo not drawn)?
% Inhibition: -5%; Z score: 0.95

Which results are given for `CCN1CCc2cc(OC)c(OC)cc2C1C(NS(=O)(=O)c1ccccc1)C(C)C` (stereo not drawn)?
% Inhibition: 0%; Z score: 0.02

`C#CCOCCC(=O)Nc1n[nH]c2c(Cl)cccc12` was tested. Which “% Inhibition” value did it give?
Its value is 0%.

And the Z score?
Its Z score is 0.04.

Which results are given for `CC(C)(CN1CCCCCC1)NC(=O)CCC(F)(F)F`?
% Inhibition: -13%; Z score: 1.67

Which “% Inhibition” value does the source give for `Cc1nc(-c2ccc(C)c3ncccc23)n(C)n1` here?
Its value is -17%.

And the Z score?
The Z score was 1.76.

Which results are given for `CCOC(=O)c1csc([C@@H]2CCCN2C(=O)Nc2ccon2)n1`?
% Inhibition: -17%; Z score: 2.08

How did the “% Inhibition” value turn out when `O=C(Nc1ncnn1-c1ccccc1)[C@H]1CCCC(F)(F)C1` was run?
The value was 0%.

What about the Z score of the same compound?
Its Z score is 0.07.

Which results are given for `COC[C@@H](O)CNC(C)c1cc(C)oc1C` (stereo partly drawn)?
% Inhibition: -6%; Z score: 0.71

With `Cc1cc2occ(CC(=O)Nc3nc(-c4ccc(C5CCCCC5)cc4)cs3)c2cc1C(C)C` as the compound, how does the “% Inhibition” value read?
The value was -11%.

What about the Z score of the same compound?
The Z score was 1.87.

How did the “% Inhibition” value turn out when `O=C(N[C@H]1CC(=O)N(c2ccc3c(c2)OCCO3)C1)c1ccc(S(=O)(=O)N2CCOCC2)cc1` was run?
The value was -6%.

What about the Z score of the same compound?
The Z score was 1.09.

`Cc1cccc(C(=O)NCCc2cncn2C)c1Cl` was tested. Which “% Inhibition” value did it give?
The value was -8%.

What about the Z score of the same compound?
Its Z score is 0.82.

For `CCCc1nn2c(c1-c1ccc(C)c(S(=O)(=O)NCCOC)c1)NC(=O)CCC2=O`, which “% Inhibition” value is on record?
Its value is -1%.

What about the Z score of the same compound?
Its Z score is 0.07.

For `Cc1nn(C)c2nc(N(C)Cc3ccccn3)sc12`, which “% Inhibition” value is on record?
The value was 11%.

And the Z score?
Its Z score is -1.35.

For `CCOCc1c(C(=O)N2CCCN(C(C)=O)CC2)oc2ccccc12`, which “% Inhibition” value is on record?
Its value is -1%.

And the Z score?
Its Z score is 0.14.
